Measured values published in PubChem BioAssay AID2675 (National Center for Advancing Translational Sciences (NCATS), 2010).
Screen size: about 280,000 compounds; about 100 (0.036%) were called active. Inconclusive results, whose numbers are uncertain, are shown with a selection of clear calls. Calls come from the whole dose curve; as a rule, active = well fitted inhibition curve with a large enough effect in the signal ratio, with a control signal flat (not every such curve was filed as active); inconclusive = small, poorly fitted or top-dose-only effect, or effect the other way, or a change in a side signal; inactive = no such curve, though single readings can be large or run the other way; the % refers to the signal ratio. A potency beside an inconclusive call is a rough fit, not a confirmed value. A note “side channel” means that the fit belongs to a control or component signal, not to the main read-out.

The compounds below were run against Muscleblind-like protein 1 (Homo sapiens) (UniProt Q9NR56) (assay: qHTS Assay for Inhibitors of MBNL1-poly(CUG) RNA binding). Details: TR-FRET MBNL1-His/biotin-(CUG)12 binding, 665/545 ratio; activity change, negative = inhibition: at 57.5 µM (top of the series).
Procedure, shortened: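 TR-FRET between His-tagged MBNL1 and biotin-(CUG)12 RNA, detected with Tb anti-His antibody (0.055 ng/ul) and streptavidin-XL665 (5 nM), 60 min at room temperature. Compounds titrated 92 nM to 58 uM; 665/545 nm ratio normalized to buffer and complex controls.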
% is set by controls: 0 for no effect and ±100 for the full control effect; potency is the fitted concentration of half-maximal effect; tags give direction and shape of the fitted curve or compound fluorescence and quenching.

Chain of UniProt Q9NR56 (Q9NR56 whole entry, looked up): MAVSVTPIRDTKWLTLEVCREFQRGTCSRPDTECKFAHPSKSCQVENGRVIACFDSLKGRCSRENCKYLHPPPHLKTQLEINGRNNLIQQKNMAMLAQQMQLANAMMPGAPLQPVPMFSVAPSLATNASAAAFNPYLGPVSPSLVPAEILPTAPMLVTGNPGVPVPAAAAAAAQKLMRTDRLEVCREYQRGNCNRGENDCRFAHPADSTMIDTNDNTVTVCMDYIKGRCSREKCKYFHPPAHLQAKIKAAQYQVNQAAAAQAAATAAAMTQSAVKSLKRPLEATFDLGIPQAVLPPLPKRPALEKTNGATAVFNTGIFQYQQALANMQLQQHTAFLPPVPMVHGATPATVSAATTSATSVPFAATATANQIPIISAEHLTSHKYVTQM

Compound	activity change, negative = inhibition	Potency
CC1=CC(C)(C)Nc2ccc(C)cc21	inactive: -11.7%	–
Cc1cc(/C=C2\SC(=S)NC2=O)c(C)[nH]1	–	inconclusive: 44.7 µM [quencher, side channel, partial curve, poor fit]
Cc1ccc(OCC(=O)N/N=C\c2cccs2)c([N+](=O)[O-])c1	–	inconclusive: 28.2 µM [quencher, side channel, partial curve]
O=C(O)c1ccc(S(=O)(=O)c2ccc([N+](=O)[O-])cc2[N+](=O)[O-])cc1	–	inconclusive: 15.8 µM [quencher, side channel, partial curve]
O=C(NCc1ccco1)/C(=C/c1ccc([N+](=O)[O-])cc1)NC(=O)c1ccco1	–	inconclusive: 14.1 µM [quencher, side channel, partial curve]
CC(C)(C)NC(=O)NC(=O)C[n+]1ccc(Cc2ccc([N+](=O)[O-])cc2)cc1	–	inconclusive: 15.8 µM [quencher, partial curve]
CCOC(=O)CC1=C(C(=O)OCC)C(c2ccc(OC)c(OC)c2)C(C#N)=C(N)O1 (centres undefined)	inactive: 5.26%	–
O=C(N/N=C/c1ccc[nH]1)c1sc2ccccc2c1Cl	–	inconclusive: 8.91 µM [quencher, side channel, partial curve]
COc1cc(Cl)ccc1NC(=S)N(CCCN1CCOCC1)Cc1cn(C)c2ccccc12	–	inconclusive: 0.891 µM [fluorescent, side channel, single point]
Cc1ccc(C)c(NC(=O)c2cc3ccccn3n2)c1	–	inconclusive: 7.08 µM [quencher, side channel, partial curve, poor fit]
COc1ccc(C(=O)NCC(=O)N=Nc2c(O)n(Cc3ccccc3)c3ccccc23)cc1OC	–	inconclusive: 31.6 µM [quencher, single point]
O=C(N=Nc1c(O)n(Cc2ccccc2)c2ccccc12)c1ccc(O)cc1	–	inconclusive: 12.6 µM [quencher, side channel, partial curve, poor fit]
Cc1sc2nc(-c3ccccn3)[nH]c(=O)c2c1-c1ccccc1	–	inconclusive: 31.6 µM [quencher, side channel, single point]
COC(=O)c1nn(-c2cccc(C(F)(F)F)c2)c(=O)cc1Sc1ccccn1	–	inconclusive: 8.91 µM [quencher, side channel, partial curve]
O=C(NCCN1CCOCC1)c1ccc([N+](=O)[O-])cc1[N+](=O)[O-]	–	inconclusive: 11.2 µM [quencher, partial curve]
Cc1ccc(S(=O)(=O)/C(C#N)=C/c2c(N3CCOCC3)nc3ccccn3c2=O)cc1	–	inconclusive: 15.8 µM [quencher, side channel, partial curve]
O=[N+]([O-])c1cc(-n2cccc2)ccc1N1CCOCC1	–	inconclusive: 14.1 µM [quencher, side channel, partial curve]
O=[n+]1cc(-c2cccc3ccccc23)n([O-])c2c1CCC2	–	inconclusive: 31.6 µM [quencher, side channel, partial curve]
Cc1cccc(NC(=O)c2ccccc2[N+](=O)[O-])n1	–	inconclusive: 39.8 µM [quencher, side channel, single point]
Cc1nn(C)c(C)c1S(=O)(=O)N(CC(=O)NCc1ccco1)c1ccc(C(C)C)cc1	–	inconclusive: 2.82 µM [fluorescent, side channel, partial curve]

Compound	activity change, negative = inhibition	Potency
Cn1nnnc1SCC(=O)Nc1ccccc1[N+](=O)[O-]	–	inconclusive: 31.6 µM [quencher, side channel, partial curve]
O=C(/C=C/c1cccnc1)c1cccc(O)c1	–	inconclusive: 200 µM [inhibitor, partial curve]
Cc1ccccc1NC(=O)N1C2CCCC1CC(NC(=O)C1CC1)C2 (centres undefined)	inactive: -0.406%	–
O=C(c1ccco1)N1CCN(C(=O)c2snc3ccc(Cl)cc23)CC1	–	inconclusive: 28.2 µM [quencher, side channel, single point]
Cn1c(/C=N/O)nc2ccccc21	inactive: -4.28%	–
COc1cc([N+](=O)[O-])ccc1NC(=O)CCCOc1cccc(C)c1	–	inconclusive: 39.8 µM [quencher, side channel, single point]
Cc1ccnc(NC(=O)c2ccc3c(c2)C(=O)N(CC2CCCO2)C3=O)c1 (centres undefined)	–	inconclusive: 4.47 µM [quencher, side channel, full curve]
CCCn1c2ccccc2c2cnn(CC(=O)NC3CCCCC3)c(=O)c21	inactive: 0.0908%	–
O=C(NC(=S)Nc1ccc(N2CCOCC2)cc1)c1cccs1	inactive: 14.4%	–
O=C(CCN1C(=O)c2cccc3cccc(c23)C1=O)NCc1ccco1	–	inconclusive: 22.4 µM [quencher, side channel, partial curve]
CCOc1cccc(C(=O)NC(=S)Nc2ccc3c(c2)OCCO3)c1	inactive: -3.48%	–
CN(CC(=O)Nc1ccccc1C(F)(F)F)C(=O)COc1cccnc1[N+](=O)[O-]	–	inconclusive: 28.2 µM [quencher, side channel, partial curve]
O=C(N/N=C/c1ccc2nccnc2c1)c1cccc([N+](=O)[O-])c1	–	inconclusive: 39.8 µM [quencher, side channel, single point]
CCN(Cc1ccccc1)c1ccc(N=Nc2nn(C)c(C)c2[N+](=O)[O-])cc1	–	inconclusive: 3.55 µM [quencher, side channel, partial curve]
Cc1ccc(-c2ccc3nnc(SCC(=O)NCC4CCCO4)n3n2)cc1 (centres undefined)	–	inconclusive: 6.31 µM [quencher, side channel, partial curve]
CCCCn1c2ccc(F)cc2c2nnc(SCCN3CCOCC3)nc21	–	inconclusive: 15.8 µM [quencher, side channel, partial curve]
O=[N+]([O-])c1ccc(S(=O)(=O)Nc2ccc(S(=O)(=O)N3CCCC3)cc2)cc1	–	inconclusive: 12.6 µM [quencher, side channel, partial curve]
c1ccc(-c2nnnc3ccccc23)cc1	–	inconclusive: 12.6 µM [quencher, side channel, partial curve]
Cc1cccc2c(Cl)cc(=O)[nH]c12	–	inconclusive: 39.8 µM [quencher, side channel, single point]
N#C/C(=C\c1ccc(-c2ccc([N+](=O)[O-])cc2Br)o1)C(=O)N1CCN(c2ccccc2)CC1	–	inconclusive: 0.891 µM [fluorescent, side channel, partial curve]

Compound	activity change, negative = inhibition	Potency
Cc1ccccc1NC(=O)/C=C1\SC(=O)NC1=O	–	inconclusive: 35.5 µM [fluorescent, side channel, single point]
COc1cccc(Nc2ncnc3nc[nH]c23)c1	–	inconclusive: 35.5 µM [quencher, side channel, partial curve, poor fit]
O=c1c2ccccc2nc2ccccn12	–	inconclusive: 17.8 µM [quencher, side channel, single point]
CC/C(=N\NC(=O)c1c[nH]c2ccccc12)c1cccs1	–	inconclusive: 1.12 µM [fluorescent, side channel, partial curve]
O=C(NC(=S)NCc1cccnc1)c1ccccc1[N+](=O)[O-]	–	inconclusive: 35.5 µM [quencher, side channel, single point]
COc1ccc(N2C(=O)[C@@H]3[C@H](C2=O)[C@H]2c4ccccc4C=CN2[C@@H]3C(C)=O)cc1	–	inconclusive: 31.6 µM [quencher, side channel, partial curve]
COc1cc(/C=N/Nc2ccc([N+](=O)[O-])cn2)cc(OC)c1O	–	inconclusive: 7.08 µM [quencher, side channel, partial curve]
Cc1cc(C)n(C(=O)c2ccccc2[N+](=O)[O-])n1	–	inconclusive: 25.1 µM [quencher, side channel, partial curve]
O=[N+]([O-])c1cccc(NC(=S)N2CCc3ccccc32)c1	–	inconclusive: 28.2 µM [quencher, side channel, single point]
COc1ccc2c(c1)CCCC2NS(=O)(=O)OCC(Cl)(Cl)Cl (centres undefined)	inactive: 5.35%	–
CC(=O)NC1=NN(C(C)=O)C(C)(c2ccccc2)S1 (centres undefined)	–	inconclusive: 3.98 µM [quencher, side channel, partial curve]
Cc1ccccc1Nc1nnc(SCc2cc(=O)n3ccsc3n2)s1	inactive: 85.6%	–
O=S(=O)(c1cccc2nsnc12)N1CCCC1	–	inconclusive: 3.16 µM [quencher, side channel, full curve]
COCCn1c(SCC(=O)N2CCCCCC2)nc2c(c1=O)SCC2	–	inconclusive: 31.6 µM [quencher, side channel, single point]
CN(C)CCCNC(=O)C(=O)NCC1CCCO1 (centres undefined)	inactive: -1.69%	–
Cn1cccc1/C=C1\SC(=Nc2ccc(O)cc2)NC1=O	–	inconclusive: 11.2 µM [quencher, side channel, partial curve]
Nc1[nH]n2c(=O)c3c(nc2c1N=Nc1ccccc1)CCCC3	–	inconclusive: 3.98 µM [quencher, side channel, full curve, poor fit]
COC(=O)c1sccc1NC(=O)NC1CCCCC1	inactive: 3.37%	–
Cc1ccc(C(=O)N2CCC(C(=O)NCc3cccnc3)CC2)cc1	–	inconclusive: 100 µM [inhibitor, single point]
